Read counts are not given, so values of variants with three or more changes are uncertain.
B1: LINE1-mini (parent)
chain: GGCAGAGCUCAACACAGCGUGGCAAAGUGGCUGUGGCUAGACUGCC

Variants of: B1
Assay: self-cleavage, relative activity (ratio to wild type); higher = more cleavage; in vitro, sequencing; the parent is a self-cleaving ribozyme
G2C C3U A16C U34C G36U G44C showed a self-cleavage of 0.04. G2C A6C U34G gave a self-cleavage of 0.13. Variant G2C A24U G29A G33A has a self-cleavage of 0.12. Work on G2C C3A A6G G17U G19A G27C C46A yielded a self-cleavage of 0.06. With G2C A4C G17U G33U the self-cleavage was 0.02. G2C A4G A14G U20G G33C G36C showed a self-cleavage of 0.02. In the case of G2C C3U U28G, the self-cleavage is reported as 0.15. G2C A14U A16G A24U G33A A41U gave a self-cleavage of 0.08. With G2A U28C G30U A41U the self-cleavage was 0.3. In the case of G2C A6G C15U G29A C37U C42G, the self-cleavage is reported as 0.02. Work on G2C C3U G5C A11G A25U C42A yielded a self-cleavage of 0.05. Work on G2C A4G G21C C31U C37U yielded a self-cleavage of 0.02. Work on G2C A16C A24C C46A yielded a self-cleavage of 0.03. Work on G2C A26C G27C U28A G35C yielded a self-cleavage of 0.03. G2C A11U C23A U28G G36C gave a self-cleavage of 0.01. Variant G2A U34G G44U has a self-cleavage of 0.04. Work on G2C C3A A16G G27U C31A yielded a self-cleavage of 0.03. Work on G2C A24G G29U yielded a self-cleavage of 0.2. In the case of G2C C10A G19U C45A, the self-cleavage is reported as 0.01. Variant G2C A12G G22C G44A has a self-cleavage of 0.25. G2C A11C A14C G21C A24C U34A A39U gave a self-cleavage of 0.01. With G2C A11U C15G C18U U20G the self-cleavage was 0.02. For G2C C3A A14C G27A G35A, the self-cleavage was 0.08. Work on G2C C10G C31A yielded a self-cleavage of 0.01. Work on G2C C8U C13U U28G yielded a self-cleavage of 0.13. G2C A12C A14U A24G G27U G29C G44C C45A showed a self-cleavage of 0.01. G2C A4U G29U showed a self-cleavage of 0.18. With G2C A4U A12G A26C the self-cleavage was 0.25. In the case of G2C C3U C10A C18G, the self-cleavage is reported as 0.11. With G2A U43A C46A the self-cleavage was 0.09. In the case of G2C C13G G29U, the self-cleavage is reported as 0.04. Variant G2C A39C C45A has a self-cleavage of 0.01. With G2C A16U G19U the self-cleavage was 0.05. G2C C8U C13U U20G G36C G44A showed a self-cleavage of 0.13. With G2C A6U G7C A11U A14C A41C the self-cleavage was 0.01. G2C C10U G29U U32G gave a self-cleavage of 0.03. G2C C13A A14G showed a self-cleavage of 0.21. For G2C C8U G21C C45U, the self-cleavage was 0.12. For G2C A12C C13A U28C G33C, the self-cleavage was 0.01. With G2C C3U A6U C10A A16G the self-cleavage was 0.04. Variant G2C C10A C13U has a self-cleavage of 0.1. In the case of G2A U32C C37U, the self-cleavage is reported as 0.12. In the case of G2C A4G G5A U9A A12C C13U G17U A25U, the self-cleavage is reported as 0.03. In the case of G2C A12C C23A G35U, the self-cleavage is reported as 0.07. For G2C A12C C23U, the self-cleavage was 0.03. G2C C10A C13A G21C showed a self-cleavage of 0.01. G2C C3G U20A showed a self-cleavage of 0.06. G2C A14U G22C G27C U43G showed a self-cleavage of 0.03. G2C C3U U20A C46A showed a self-cleavage of 0.15. G2C C13G G30C C31U G40A showed a self-cleavage of 0. For G2C C10G U20A, the self-cleavage was 0.01. For G2C C13G A39G, the self-cleavage was 0.07. Variant G2C C3G C13U C18U C45A has a self-cleavage of 0.01. For G2C C10A U20C G22U, the self-cleavage was 0. For G2C A11C A14U G29U, the self-cleavage was 0.06. G2C A24U U28C showed a self-cleavage of 0.05. Work on G2C A4U A25G yielded a self-cleavage of 0.07. G2C C13A C37A C42U showed a self-cleavage of 0.39. For G2A U28G C45G, the self-cleavage was 0.27. With G2C A6U U38A C45A the self-cleavage was 0.37. With G2A U32A C46A the self-cleavage was 0.06. Work on G2C A14C G17A U32A G36A yielded a self-cleavage of 0.14. Work on G2C A16G G19U C37U yielded a self-cleavage of 0.02. G2C C13A A25U A39U gave a self-cleavage of 0.07. Work on G2C A11C G27A yielded a self-cleavage of 0.01. With G2C C10A A16C C23A G29A the self-cleavage was 0.01. Work on G2C C8U C10U A41U yielded a self-cleavage of 0.06. Variant G2C C3U A4U U20A G21C A26G U38A has a self-cleavage of 0.02. G2C C10U U20A C23U G27U G35C gave a self-cleavage of 0.01. With G2C C8A A11C G19U G40U C42A the self-cleavage was 0.01. In the case of G2C A4G A6U G7C G19C A39G, the self-cleavage is reported as 0.07. G2C A25U U32C U43A gave a self-cleavage of 0.09. For G2C A12U G17U A24U U28A G35C U38A, the self-cleavage was 0.07. G2C C3U A26C U32C gave a self-cleavage of 0.1. Work on G2C C8A A11U C18U G27C yielded a self-cleavage of 0.69. G2C A11U G17U gave a self-cleavage of 0.03. G2C A11C A12C U32G showed a self-cleavage of 0.01. Variant G2C C13U C18U G27C has a self-cleavage of 0.02. Work on G2C A11U C46A yielded a self-cleavage of 0.05. G2C A6C G22A C37U gave a self-cleavage of 0.02. G2C C3A A6U C10G G22C showed a self-cleavage of 0.03. With G2C A4U C8G A39C C46U the self-cleavage was 0.04. In the case of G2C C3A G27U U28A, the self-cleavage is reported as 0.7. G2C C8U C23A gave a self-cleavage of 0.02. Work on G2C C10U A25G G40A C45G yielded a self-cleavage of 0.02. G2C C13G G33U U38C showed a self-cleavage of 0.08. With G2C A39G C42A the self-cleavage was 0.11. For G2C C8A U9A C18A C31G G35C A39C C42G, the self-cleavage was 0.01. G2C C8U G19U showed a self-cleavage of 0.1. Variant G2C C10U C13A G30U has a self-cleavage of 0.03. For G2C C10A G36C C46G, the self-cleavage was 0.01. For G2C C13A A24C, the self-cleavage was 0. G2C C3A G7U C8G C23U gave a self-cleavage of 0.25. G2C C8G A11C A24C showed a self-cleavage of 0.02. G2C A4U A11U C23G G30U C45G gave a self-cleavage of 0.08. Work on G2C C10G G29U yielded a self-cleavage of 0.04. For G2C C3G G5U C18G, the self-cleavage was 0.03. Variant G2C A6C G30A C37A G44C has a self-cleavage of 0.08. Variant G2C A6U U9C C23A G40U has a self-cleavage of 0.1. G2C A16G C46G gave a self-cleavage of 0.03. G2C A11C G29C C42G showed a self-cleavage of 0. For G2C A4G G7C C8U C15A C23G, the self-cleavage was 0.39. In the case of G2A U32C G33U G44A, the self-cleavage is reported as 0.23. With G2C C8U A24U the self-cleavage was 0.04. G2C A6U C8U A12C G35A G44A gave a self-cleavage of 0.05. With G2C C8G G30U C45U the self-cleavage was 0.02. Variant G2C C10U A24U G36U C42G C45G has a self-cleavage of 0.01. For G2C C3U G7C G17C, the self-cleavage was 0.16. With G2C A11C A24U A26C G35C the self-cleavage was 0.01. G2C C3U C13U A16G G27A C46U showed a self-cleavage of 0.02. With G2C A6G A16G the self-cleavage was 0.06. G2C A16U C42A U43C showed a self-cleavage of 0.09. G2C C10A A14U gave a self-cleavage of 0.02. Variant G2C A12G A25U has a self-cleavage of 0.03. Work on G2C C13A A14C A16U U34G C46A yielded a self-cleavage of 0.13. Work on G2C C8G C18U yielded a self-cleavage of 0.04. G2C C10A C42G gave a self-cleavage of 0.01. For G2C C3U G22U U32A, the self-cleavage was 0.06. With G2C C3U A12G A14U the self-cleavage was 0.06. In the case of G2A U43C C45G, the self-cleavage is reported as 0.84. Variant G2C A12C C15A U38A C46A has a self-cleavage of 0.03. G2C C8U G22C C31A showed a self-cleavage of 0.03. In the case of G2C C8G C18G U34G, the self-cleavage is reported as 0.01. For G2C A12G G36U G44A, the self-cleavage was 0.03. Work on G2C A24G U43C yielded a self-cleavage of 0. Work on G2C C10G G27A U34A yielded a self-cleavage of 0.01. With G2C C8G G29A U34A C42A the self-cleavage was 0.03. In the case of G2C A4U G30U C46G, the self-cleavage is reported as 0.07. G2C C8G U9C G29C U32G gave a self-cleavage of 0.04. G2C C10G A14G C46A gave a self-cleavage of 0. Work on G2C A4C A14C A39G yielded a self-cleavage of 0.16. Variant G2C C3G C8U C10G A12C G36A has a self-cleavage of 0.01. Variant G2C C8G A41C has a self-cleavage of 0. In the case of G2C A4C C13A U28G G33C, the self-cleavage is reported as 0.01. Work on G2C C10A A24G A25G A26C yielded a self-cleavage of 0.02. In the case of G2C C10A G17U C31A G40A, the self-cleavage is reported as 0. With G2C A4U G29U G44U the self-cleavage was 0.04. G2C A12U G17U gave a self-cleavage of 0.02. In the case of G2C C10A C13U C42A, the self-cleavage is reported as 0. For G2C C10A G22A G36A, the self-cleavage was 0.02. Work on G2C C3G C23A A41U yielded a self-cleavage of 0.17. G2C A16U G17A G33C G40U showed a self-cleavage of 0.02. In the case of G2C C8A C45G, the self-cleavage is reported as 0.08. G2C C3A C10A A24C U32C G35A showed a self-cleavage of 0.01. With G2C A12C G21U U28C G35U C46A the self-cleavage was 0.01. Work on G2C C15A G21A C23U yielded a self-cleavage of 0.01. Work on G2C A4G G30C yielded a self-cleavage of 0.07. For G2C A14G G40A, the self-cleavage was 0.01. For G2C C10G A14G C37A, the self-cleavage was 0.01. Work on G2C A6G C10U A14C C15G G19U yielded a self-cleavage of 0.01. Work on G2C A4C U20A G33U yielded a self-cleavage of 0.01. For G2C A6G G21A, the self-cleavage was 0.21. G2C C3A A6U G19U A24C C42G gave a self-cleavage of 0.02. With G2C A4C U20A A26C G27U the self-cleavage was 0.04. Work on G2C C3G C10A G17A G19U yielded a self-cleavage of 0.04. Variant G2C A12U U34G C37A has a self-cleavage of 0.01. Work on G2C A4G G40C yielded a self-cleavage of 0.16. In the case of G2C A14G C23A, the self-cleavage is reported as 0.35. Variant G2C A14G U32A G33A has a self-cleavage of 0.1. In the case of G2C C8G C18A C23A G29U G35U, the self-cleavage is reported as 0.05. Work on G2C C3U A4U yielded a self-cleavage of 0. With G2C A6C C18G the self-cleavage was 0. G2C A25G A26U G35A showed a self-cleavage of 0.21. G2C C13G G21C gave a self-cleavage of 0.04. G2C C8A A41U showed a self-cleavage of 0.21. In the case of G2C C8G C10A G30A U43A, the self-cleavage is reported as 0.01. G2C C10A A11U C13A A14C C31U C37U C42G gave a self-cleavage of 0.
